Screen size: about 45,000 compounds; about 200 (0.44%) were called active. Not shown: some 7% with an inconclusive outcome. The call rests on the fitted dose curve; in most records, active means well fitted activation curve with a large enough effect; inconclusive means small, poorly fitted or top-dose-only effect; inactive means no such curve, though single readings can be large or run the other way. Some of the results follow.
Assay: qHTS of TDP-43 Inhibitors: NCGC Sytravon Library Screen; further: 0% is about no effect; nearly all actives have a fitted effect of over 55% in size
Details: yeast TDP-43 toxicity rescue, BacTiter-Glo growth, 24 h; series mostly up to 46.1 µM; growth rescue (activation): at the top concentration
How it was run: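 TDP-43-expressing yeast, pregrown in raffinose, seeded at OD600 0.02 in galactose medium with compound for 24 hr at 30 deg C. Growth read by BacTiter-Glo luminescence, so rescue of toxicity appears as activation.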

Row | SMILES | growth rescue (activation)
1 | COc1cc(NC(=O)COc2ccccc2Cl)ccc1NC(=O)C(C)C | inactive: -7.45%
2 | CCOC(=O)N1CCC(NC(=O)c2cc(C(=O)NC3CCN(Cc4ccccc4)CC3)ccc2CO)CC1 | inactive: -11.1%
3 | Cc1ccc(N2C(=O)N(c3ccc(C)cc3)C3CS(=O)(=O)CC32)cc1 (stereo not given) | inactive: -5.3%
4 | Cc1c(CC(=O)N[C@@H](C)C(=O)O)c(=O)oc2c(C)c3occ(-c4ccccc4)c3cc12 | inactive: -13.8%
5 | Cc1ccc2cc(C)c3nnc(SCc4ccc(C(=O)O)cc4)n3c2c1C | inactive: 29.6%
6 | CCN(C(=O)COC(=O)/C=C/c1ccc(F)cc1)C1CCCCC1 | inactive: 29.2%
7 | CCOC(=O)CC(NC(=O)Cc1ccc(F)cc1)c1ccccc1Cl (stereo not given) | inactive: 7.84%
8 | Cc1ccc(NC(=O)CN(C)C(=O)c2cccc(Br)c2)cc1 | inactive: 0.342%
9 | O=C(/C=C/c1ccco1)N1CCc2ccccc21 | inactive: 11.8%
10 | Cc1ccc(C(=O)OCC(=O)N2CCCC2)cc1 | inactive: 7.39%
11 | Cc1ccc(NS(=O)(=O)c2ccc(CCC(=O)NCc3ccccn3)cc2)cc1 | inactive: -2.63%
12 | Cc1ccc(N2CCN(/N=C/c3cccnc3)CC2)cc1 | inactive: -7.94%
13 | Cc1ccc(CN(C)C(=O)c2cccc(S(=O)(=O)N3CCc4ccccc43)c2)cc1 | inactive: -4.88%
14 | CC1CCCCC1NC(=O)NC(=O)COC(=O)c1nccnc1N (stereo not given) | inactive: 21.9%
15 | O=C(NC12CC3CC(CC(C3)C1)C2)c1cc(F)c(F)c(F)c1F | inactive: 1.27%
16 | N=c1c2ccccc2nnn1-c1cccc(C(F)(F)F)c1 | inactive: 3.77%
17 | CCOc1ccc(N(CC(=O)NCCSc2ccccn2)S(=O)(=O)c2ccc(Cl)cc2)cc1 | inactive: -11.9%
18 | COC(=O)c1cc(C(=O)OC)cc(S(=O)(=O)Nc2ccc(Cl)c(N)c2)c1 | inactive: 16.5%
19 | O=C(CSC1=NCCS1)NC(NC(=O)CSC1=NCCS1)c1ccccc1 | inactive: -8.45%
20 | CCCCCn1c(=O)[nH]c2cc(C(=O)NCCCN3CCCCC3CC)ccc2c1=O (stereo not given) | inactive: 12.6%
21 | C/C(=N/NC(=O)c1cccs1)c1cccs1 | inactive: 10.4%
22 | O=C(c1ccco1)N1CCN(Cc2nnc(-c3cccc(Cl)c3)o2)CC1 | inactive: 23.5%
23 | CCOc1ccc(CN2CCNC(=O)C2CC(=O)NC2CCOCC2)cc1 (stereo not given) | inactive: -5.66%
24 | Cc1ccccc1OCC(=O)N/N=C/c1sc(=O)n(Cc2cccc(C(=O)O)c2)c1Cl | inactive: 12.3%
25 | CCNC(=O)C1(C)CCCN1Cc1ccccc1Cl (stereo not given) | inactive: -3.16%
26 | Cn1cc(/C=C2\SC(=S)N(N3CCOCC3)C2=O)c2ccccc21 | inactive: 8.21%
27 | COc1ccccc1C(NC(=O)C1CCN(CCOc2ccc3ccccc3c2)CC1)c1ccccn1 (stereo not given) | inactive: -3.89%
28 | CCOc1ccc(NC(=O)N2CCC(c3nc4ccccc4[nH]3)CC2)cc1 | inactive: -4.51%

Row | SMILES | growth rescue (activation)
29 | Cc1c(C(=O)NCc2ccc3c(c2)OCO3)cccc1[N+](=O)[O-] | inactive: 7.53%
30 | COc1cc(OC)cc(C(=O)NC(C(=O)Nc2ccc(N3CCOCC3)cc2)C(C)C)c1 (stereo not given) | inactive: 9.21%
31 | Cc1cccc(OCC(=O)Nc2ccccc2F)c1 | inactive: 11.7%
32 | CCOC(=O)Cc1nn[nH]n1 | inactive: -1.12%
33 | O=C(NCc1ccccn1)C(=O)Nc1ccccc1 | inactive: -0.203%
34 | Cc1ccc(S(=O)(=O)/N=C(/Nc2cccc(O)c2)c2ccccc2)cc1 | inactive: 0.159%
35 | O=C(CSc1nnc(-c2ccncc2)n1Cc1ccco1)Nc1cccc(O)c1 | inactive: -10.3%
36 | CC1(C)OC(=CC=Nc2ccc(Cl)cc2)OC1(C)C | inactive: 16.8%
37 | CC(C)N(C(=O)COC(=O)c1cccnc1Cl)c1ccccc1 | inactive: 18.9%
38 | CCN(CC)S(=O)(=O)c1ccc(NC(=O)CCNC(=O)c2ccccc2)cc1 | inactive: -14.6%
39 | COc1ccc(OC(=O)/C=C/c2ccc([N+](=O)[O-])cc2)cc1 | inactive: 10.9%
40 | Cc1cccc(C)c1NC(=O)C1CCCN1C(=O)Nc1cccc(F)c1 (stereo not given) | inactive: 5.54%
41 | CCn1c(SCc2nc3ccccc3c(=O)[nH]2)nc2ccccc2c1=O | inactive: 5.7%
42 | C=CCn1c(-c2ccc([N+](=O)[O-])cc2)n[nH]c1=S | inactive: -9.01%
43 | CCCSc1ncc(Cl)c(C(=O)Nc2ccc(S(=O)(=O)N3CCCC(C)C3)cc2)n1 (stereo not given) | inactive: 8.35%
44 | CCOc1ccccc1CN1CCN(Cc2cccc3nonc23)CC1CCO (stereo not given) | inactive: -14.2%
45 | Cc1cccc(NC(=S)N(CCN(C)C)Cc2cc3cc(C)cc(C)c3[nH]c2=O)c1 | inactive: 4.63%
46 | Cc1ccc(C2C(C(=O)c3sc(C)nc3C)=C(O)C(=O)N2CCN2CCOCC2)o1 (stereo not given) | inactive: 0.462%
47 | COc1ccc2nc(N3CCCCC3)c(/C=C3\SC(=S)NC3=O)cc2c1 | inactive: 13.7%
48 | CC1CCCCC12NC(=O)N(CC(=O)NCCc1ccccc1)C2=O (stereo not given) | inactive: 5.64%
49 | CCS(=O)(=O)N1Cc2ccccc2CC1C(=O)OCC(=O)N(C(C)C)C(C)C (stereo not given) | inactive: 12.4%
50 | COc1ccc(-n2c(SCC(=O)N3CCCC(C)C3)nnc2-c2cccnc2)cc1 (stereo not given) | inactive: 18%
51 | COc1ccccc1NS(=O)(=O)c1ccc2oc(SCC(C)=O)nc2c1 | inactive: 3.69%
52 | CC(Sc1nc2ccccc2c(=O)n1CCCN1CCOCC1)C(=O)N1CCc2ccccc21 (stereo not given) | inactive: 3.45%
53 | CCCCC(=O)Nc1cccc(-c2cn3ccsc3n2)c1 | inactive: 0.259%
54 | CN(C)c1ccc(CN(Cc2ccco2)C(=O)COc2ccc(F)cc2)cc1 | inactive: 2.09%
55 | COc1ccc(/C=N/Nc2nncc3ccccc23)cc1 | inactive: -28%

— PubChem BioAssay AID1347073 (National Center for Advancing Translational Sciences (NCATS), 2019)
